# Measurements published in publication PMC4336329 (PLoS ONE, 2015).
# The whole screen tested about 310,000 compounds, of which about 2,200 (0.71%) showed an effect of 50% or more. The effect is printed as a negative number. Some of the results follow.
# Molecular target: human ether-à-go-go-related gene (hERG) potassium channel (human, UniProt Q12809)
# Experiment: primary screen, population patch clamp on CHO cells stably expressing hERG
# human ether-à-go-go-related gene (hERG) potassium channel, sequence (Q12809 whole entry, looked up): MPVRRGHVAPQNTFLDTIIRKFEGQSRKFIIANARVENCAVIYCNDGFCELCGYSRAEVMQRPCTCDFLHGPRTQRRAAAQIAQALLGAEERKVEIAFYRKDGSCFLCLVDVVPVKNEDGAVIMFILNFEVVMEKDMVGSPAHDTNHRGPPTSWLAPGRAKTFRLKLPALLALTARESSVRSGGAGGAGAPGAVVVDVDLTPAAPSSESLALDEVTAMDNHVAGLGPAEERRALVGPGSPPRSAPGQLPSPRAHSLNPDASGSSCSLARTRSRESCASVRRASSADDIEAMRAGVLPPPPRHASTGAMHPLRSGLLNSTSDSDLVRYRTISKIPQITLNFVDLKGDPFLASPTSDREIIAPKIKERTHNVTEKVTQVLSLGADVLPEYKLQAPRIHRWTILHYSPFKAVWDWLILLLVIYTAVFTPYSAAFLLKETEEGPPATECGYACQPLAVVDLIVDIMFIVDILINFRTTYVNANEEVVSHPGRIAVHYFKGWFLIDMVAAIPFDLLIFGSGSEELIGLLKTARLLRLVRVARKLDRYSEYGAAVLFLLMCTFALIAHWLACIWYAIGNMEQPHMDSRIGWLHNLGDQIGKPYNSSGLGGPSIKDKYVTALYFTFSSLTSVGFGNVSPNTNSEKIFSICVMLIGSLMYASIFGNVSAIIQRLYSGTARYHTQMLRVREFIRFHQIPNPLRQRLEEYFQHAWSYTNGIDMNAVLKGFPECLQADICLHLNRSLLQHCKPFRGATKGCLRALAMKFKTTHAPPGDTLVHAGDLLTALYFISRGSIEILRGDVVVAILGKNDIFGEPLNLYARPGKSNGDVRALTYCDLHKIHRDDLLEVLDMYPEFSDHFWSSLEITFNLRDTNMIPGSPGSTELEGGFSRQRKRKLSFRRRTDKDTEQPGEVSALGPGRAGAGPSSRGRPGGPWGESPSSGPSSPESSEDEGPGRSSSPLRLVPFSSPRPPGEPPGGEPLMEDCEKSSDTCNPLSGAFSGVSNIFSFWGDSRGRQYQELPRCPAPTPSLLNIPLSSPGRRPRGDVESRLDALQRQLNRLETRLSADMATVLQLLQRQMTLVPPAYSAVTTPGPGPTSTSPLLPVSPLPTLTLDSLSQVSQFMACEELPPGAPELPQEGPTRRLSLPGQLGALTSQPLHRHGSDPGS
row,SMILES,"hERG current change (%, negative = inhibition) at 1uM"
1,CCOc1ccc(S(=O)(=O)N2CCOCC2)cc1NC(=O)CSC(=S)N1CCCC1,7.63%
2,COc1cccc2cc(-c3ccnc(=S)[nH]3)oc12,10.5%
3,O=C(NCc1ccccc1)C(=O)NCC1OCCN1S(=O)(=O)c1ccc2c(c1)OCCO2 (centres unmarked),7.35%
4,O=C(O)CN1C(=O)/C(=C\c2cc(Br)ccc2OCc2ccccc2F)SC1=S,21%
5,CCOC(=O)C1(C)C=C(Nc2ccccc2)C(=O)N1c1ccccc1 (centres unmarked),7.16%
6,CC(=O)c1ccc(-n2c(CCC(=O)O)ccc2-c2cccs2)cc1,9.8%
7,O=c1[nH]ncc(N2CCN(C(c3ccccc3)c3ccccc3)CC2)c1Cl,7.46%
8,CC(C)Sc1nc(N2CCOCC2)c2c3c(sc2n1)COC(C)(C)C3,8.24%
9,Cc1csc(=O)n1CCC(=O)OCC(=O)c1c(N)n(C)c(=O)n(C)c1=O,2.2%
10,CC(=O)Nc1c(O)nc(SCC(=O)Nc2cccc(C)c2)[nH]c1=O,14.8%
11,N=c1c(S(=O)(=O)c2ccccc2)cc2c(=O)n3ccccc3nc2n1Cc1cccnc1,6.5%
12,O=C(OCc1nnc(-c2ccccc2)o1)c1cc2ccccc2cc1O,9.48%
13,CC(C)=CC(=O)OCc1cc([N+](=O)[O-])cc2c1OCOC2,9.48%
14,O=C(c1ccc(N2CCCCC2)c([N+](=O)[O-])c1)N1CCN(c2ccccn2)CC1,-32%
15,Cc1c(NC(=O)Nc2ccccc2Cl)sc(=S)n1C,-4.35%
16,O=C(COc1ccccc1)N1CCN(C(=O)c2ccccc2F)CC1,17.8%
17,COc1ccc(C2C(C(N)=O)=C(C)Nc3nc(CCCO)nn32)cc1 (centres unmarked),13.5%
18,CCOc1ccc(NC2=C(OC)C(=O)c3ccccc3C2=O)cc1,-0.565%
19,O=C(/C=C/c1cn(CC(O)CN2CCCCCC2)c2ccccc12)c1cccs1 (centres unmarked),-37.9%
20,COc1cccc(/C=N/Nc2nc(-c3cccnc3)nc3ccccc23)c1,9.74%
21,N/C(=N\O)c1ccc(N2CCN(c3ncccc3C(F)(F)F)CC2)nc1,8.16%
22,COC(=O)c1cc(C(=O)Nc2nnc(C3CC3)s2)cc([N+](=O)[O-])c1,18.7%
23,COc1ccc(C(=O)N[C@H](C(=O)Nc2nc3ccccc3[nH]2)C(C)C)cc1,17.3%

row,SMILES,"hERG current change (%, negative = inhibition) at 1uM"
1,O=[N+]([O-])c1ccc(-c2ccc(/C=N/n3cnnc3)o2)c(Br)c1,4.14%
2,COc1ccc(NC(=O)Nc2ccccc2F)cc1,14.7%
3,O=S(=O)(Nc1nc2ccccc2nc1NCC1CCCO1)c1cccs1 (centres unmarked),4.63%
4,COc1cc(NC(=O)CCc2ccccc2)c(C(=O)O)cc1OC,-0.356%
5,COc1ccc(CNC(=O)CN(C(=O)c2snc(C(N)=O)c2N)c2ccccc2F)cc1,18.4%
6,NS(=O)(=O)c1ccc(NC(=O)c2cccc(Cl)c2)cc1,10.4%
7,COc1cccc(C(=O)Oc2ccc(N3C(=O)CCC3=O)c(C)c2)c1,10.6%
8,O=C1NC(=S)NC(=O)C1C1CCCCC1,5.26%
9,CN(CC(=O)NCCc1ccc(Cl)cc1)S(=O)(=O)c1cccs1,-0.434%
10,Cc1[nH]c2ccc(-c3n[nH]c(=S)n3C)cc2c1C,-8.56%
11,Cc1cccc(S(=O)Cc2ccc(C(=O)N3CCN(C(=O)c4ccco4)CC3)o2)c1 (centres unmarked),9.81%
12,CN(C)c1ccc(CNc2ncc(Br)cc2Br)cc1,0.0422%
13,CN(C(=O)COC(=O)c1cc[n+]([O-])cc1)c1ccccc1,15.5%
14,COc1cc(-c2n[nH]c(=S)n2-c2cccc(C(F)(F)F)c2)cc(OC)c1OC,18.6%
15,C/C(=N\NC(=O)CSCc1ccc([N+](=O)[O-])cc1)c1ccccc1O,13.5%
16,O=C(C1COc2ccccc2O1)N1CCN(c2nc3ccc([N+](=O)[O-])cc3s2)CC1 (centres unmarked),-2.5%
17,CCOC(=O)C1=C(C)Nc2nc(C)nn2C1c1ccc(C)cc1 (centres unmarked),7.1%
18,COc1ccc(OC)c(Nc2ccc(Nc3cc(OC)ccc3OC)nn2)c1,10.8%
19,CSc1ccc(Cl)c(C(=O)OCC(=O)N2CC(C)OC(C)C2)c1 (centres unmarked),9.15%
20,COc1ccc(-c2cc(C(F)(F)F)n3ncc(C(=O)N4CCCCC4c4cccnc4)c3n2)cc1 (centres unmarked),14.9%
21,CCCC(=O)OCC(=O)Nc1ccc2[nH]c(=O)[nH]c2c1,10.1%
22,COc1ccc(C2=NN(C(C)=O)CC2c2cccc([N+](=O)[O-])c2)cc1 (centres unmarked),6.63%
23,Cc1ccc(C(C)C)c(OCCOCCN2CCNCC2)c1.O=C(O)C(=O)O,11.3%

row,SMILES,"hERG current change (%, negative = inhibition) at 1uM"
1,CNc1nc(=S)[nH]c2ccccc12,11.4%
2,CCOc1cc(/C=C2\CCCC(C(=O)C(F)(F)F)=C2O)ccc1O,8.79%
3,O=c1cccc2n1CC1CC2CN(S(=O)(=O)c2ccccc2)C1 (centres unmarked),1.76%
4,CC12C(=O)N(c3ccc(OC(=O)c4ccco4)cc3)C(=O)C1C1c3ccccc3C2c2ccccc21 (centres unmarked),9.93%
5,CCN1CCN(c2ccc(S(=O)(=O)N3CCOCC3)cc2NC(=O)c2ccc(Cl)cc2Cl)CC1,8.83%
6,C=CCOC(=O)C1=C(C)NC(=S)NC1c1cccs1 (centres unmarked),2.16%
7,O=C(NC(=S)Nc1cc([N+](=O)[O-])ccc1O)c1ccc2c(c1)OCO2,6.26%
8,COc1ccc(CNC(=O)c2c(C)cc(=O)oc2C)cc1,0.196%
9,CCc1nnc(NC(=O)c2cccc(NC(=O)C(C)C)c2)s1,9.32%
10,CC(C)(C)c1ccccc1OCC(=O)NCCCn1ccnc1,-0.408%
11,CS(=O)(=O)N(CC(=O)N1CCN(c2ccccc2F)CC1)c1cc(C(F)(F)F)ccc1Cl,12%
12,Cc1cccc(NC(=O)CSc2nnc(CNC(=O)c3ccc(S(=O)(=O)N(C)C)cc3)n2-c2ccccc2)c1,1.08%
13,COc1cc(C(=S)N2CCN(C)CC2)ccc1OCC(=O)NCc1ccccc1,16%
14,Cc1ccc(N(CC(=O)NCc2ccco2)C(=O)CCC(=O)Nc2nccs2)cc1,8.45%
15,O=CN1CCCN(Cc2nc(-c3cccc(Cl)c3)no2)CC1,4.03%
16,Clc1ccc(-c2noc(CN3CCOCC3)n2)cc1,12.6%
17,Cc1ccc(C(=O)Nc2nc(-c3ccccc3)c(-c3ccccc3)o2)cc1,-0.531%
18,Cc1noc(C)c1S(=O)(=O)Nc1cc(C(F)(F)F)ccc1N1CCOCC1,11.7%
19,Cc1ccc(-n2c(=O)c3c(n4cnnc24)-c2ccccc2CC32CCCCC2)cc1,4.46%
20,O=C1NC(=O)C(=CN2CCc3ccccc32)C(=O)N1,11.2%
21,COc1cc(OC)cc(C(=O)NC(=S)Nc2cc3oc4ccccc4c3cc2OC)c1,5.32%
22,O=C(Nc1ccccc1)c1ccc(S(=O)(=O)N2CCOCC2)cc1,17.9%
23,COc1ccc(NC(=O)CN(C)C(=O)c2ccc(C)s2)cc1,9.17%

row,SMILES,"hERG current change (%, negative = inhibition) at 1uM"
1,O=C(CCNC(=O)c1ccc(Br)cc1)NCc1ccco1,8.04%
2,Cc1ccc(S(=O)(=O)NCCNC(=O)c2ccccc2)cc1,15.8%
3,CC1(C)c2[nH]c3ccccc3c2C[C@H]2C(=O)N(Cc3ccc(F)cc3)C(=O)N21,13.2%
4,COC(=O)c1ccc(NC(=S)NC(=O)C2CCC2)cc1,22%
5,COc1ccccc1C(=O)COC(=O)Cc1n[nH]c(=O)c2ccccc12,5.93%
6,CCN(CC)Cc1cc(NC2=NS(=O)(=O)c3ccccc32)ccc1OC(=O)C(C)C.Cl,5.53%
7,O=C(Nc1c(F)c(F)c(F)c(F)c1F)C1CCCCC1,5.93%
8,CC(C)c1onc(C(=O)NCc2cccs2)c1[N+](=O)[O-],8.86%
9,CC(=O)OC1N=C(c2ccccc2)c2ccccc2NC1=O (centres unmarked),13.3%
10,CC(Sc1ccccc1)C(=O)NN=C1CCCCCCC1 (centres unmarked),7.58%
11,Cc1cccc(-n2cnc3c(c2=O)c2nc4ccccc4nc2n3Cc2ccco2)c1,-3.97%
12,Cc1ccc(C(=O)CCC(=O)NC2CCCC(C)C2C)cc1 (centres unmarked),10.4%
13,Cc1ccc(C(=O)NCC#N)cc1,11.3%
14,CCn1ncc2c(OCc3ccc(C#N)cc3)cc(C)nc21,-1.55%
15,O=C(Nc1nccs1)C1CC(=O)N(c2ccccc2)C1 (centres unmarked),15.7%
16,CCC(C)[C@@H](N)C(=O)N/N=C/c1ccc2ncccc2c1.Cl (some centres unmarked),13.4%
17,CN(C)C(C)(C)C#CCCCCC#CC(C)(C)N(C)C,19.6%
18,Cc1ccc2c(Cl)cc(Cl)c(OCC(=O)O)c2n1,11.4%
19,O=C(Nc1ccc(S(=O)(=O)N2CCOCC2)cc1)c1cccs1,11.5%
20,CC(C)(C)NC(=O)C(=O)NNC(=O)c1ccc(C(C)(C)C)cc1,10.1%
